Data reported in the supplement of paper PMC3334620.
Whole data set: some 33,000 sequences, median “E-score (-0.5 to 0.5)” near -0.054, cut for the highest 2% near 0.35. The list shows a part of the results.

biological target: T1, Stb5 (UniProt P38699); assay: PBM E-score (8-mer binding enrichment) (E-score (-0.5 to 0.5)); higher = stronger / more preferred TF binding; most listed sequences are background and not binding sites; conditions: protein concentration: 200 nM; construct: GST-full length
T1 sequence: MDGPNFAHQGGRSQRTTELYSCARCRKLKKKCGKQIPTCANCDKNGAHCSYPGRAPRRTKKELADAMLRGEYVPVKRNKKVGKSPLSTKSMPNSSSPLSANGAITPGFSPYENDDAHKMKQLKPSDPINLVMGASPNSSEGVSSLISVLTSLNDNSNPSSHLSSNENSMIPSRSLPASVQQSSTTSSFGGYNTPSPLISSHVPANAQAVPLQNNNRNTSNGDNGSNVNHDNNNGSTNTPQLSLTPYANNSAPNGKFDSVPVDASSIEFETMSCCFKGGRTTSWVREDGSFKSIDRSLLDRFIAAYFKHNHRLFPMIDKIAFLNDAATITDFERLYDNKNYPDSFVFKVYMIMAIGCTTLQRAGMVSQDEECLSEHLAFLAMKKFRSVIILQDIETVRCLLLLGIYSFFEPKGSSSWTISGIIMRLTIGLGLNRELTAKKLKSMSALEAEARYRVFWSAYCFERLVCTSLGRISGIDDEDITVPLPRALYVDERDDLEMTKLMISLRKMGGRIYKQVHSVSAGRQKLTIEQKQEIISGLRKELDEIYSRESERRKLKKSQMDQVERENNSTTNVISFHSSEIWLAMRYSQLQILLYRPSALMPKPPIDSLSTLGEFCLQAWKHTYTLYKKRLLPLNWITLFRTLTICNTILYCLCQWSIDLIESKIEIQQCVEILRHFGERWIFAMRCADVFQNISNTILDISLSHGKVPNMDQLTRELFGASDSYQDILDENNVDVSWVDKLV
Summary of the method: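 Yeast transcription factors, full-length or as DNA-binding domains, were expressed with a GST tag using PURExpress in vitro transcription/translation. At about 100-200 nM they were applied to universal all-10-mer Agilent arrays, double-stranded by primer extension on fresh or once-stripped slides. Fluorescent anti-GST detected bound protein, and masliner normalised the scans. E-scores for ungapped eight-base words, pooled with reverse complements, came from the Universal PBM Analysis Suite.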

Sequence | PBM E-score
CGTGGGCA | -0.204
CGTATCGA | -0.144
CGTGAGAA | 0.107
AACATTGA | 0.0134
CCACTCGA | -0.306
CACTTCCG | 0.00228
GCTAGTGA | -0.226
CGGCGCAG | 0.0247
AGTACCAC | -0.0243
ACCCTCAT | -0.315
CCGGTTAG | 0.235
ATACTCCG | 0.371
AACGAGTG | -0.183
TAACAGGA | -0.0687
CGAAATGC | -0.103
GCCGATAC | 0.304
CACGCATC | 0.0305
ACCCCCCT | -0.245
CAACAATA | -0.106
TACTGTCA | -0.151
AGGATTCA | -0.212
CTACCGAA | 0.0544
CTCCAAGA | -0.418
CTGGAGTC | -0.228
CGCCTAAC | 0.116

Sequence | PBM E-score
ACCGGCAT | 0.337
CCAGTGAC | -0.278
ATATGAAC | 0.00152
GTCACGGA | 0.195
CAGATTGG | -0.11
ATATGGGG | -0.00027
AAGATACA | -0.175
AAGAAGTA | -0.102
GGTCTGTA | 0.0136
CAGTCCCC | -0.0834
ATGGGGGC | -0.0967
CACCAAGC | -0.0707
AGAGAGCG | 0.0126
ACTAGACG | -0.142
CACAAATG | -0.149
CAACGGAA | 0.0716
GTACGGCA | 0.136
GCGGACCC | 0.299
TCGTGAGA | 0.0768
AACCAGGC | 0.00402
CTCGCACC | -0.0397
AAAGGCGC | -0.0348
TCAAGTCA | -0.175
GTCCGGCA | 0.326
GTCTGAAC | -0.291

Sequence | PBM E-score
AAGAATTC | -0.0986
ACGTTTTC | -0.151
AAGGCGAA | -0.0519
AGGCAACC | -0.251
ATTAAAAA | 0.132
ATATCCAC | 0.0538
AAATGAGC | -0.0043
ATTCGGCG | 0.253
AGGCGTAT | -0.351
CGTACCTC | -0.0812
GGCGAACA | 0.00107
CAACGCAA | -0.153
CGTCGTCC | 0.015
CCCGGCGG | 0.346
GCTAACAC | 0.12
ACATGGGG | -0.0579
CCCATAAG | 0.0301
AATGGCTA | -0.234
AGCCTCCT | -0.197
ACCCTAGG | -0.165
GGGTATGA | 0.0414
CCAAAAGA | -0.00867
GTTAGCAA | -0.0846
CACCGACG | 0.453
AGGCGAGC | -0.274

Sequence | PBM E-score
CCAACCGG | 0.115
AGTTCCTC | -0.063
TGGACCAA | -0.112
ATAGACAC | -0.129
ACTAATTA | -0.0164
GATTCGAA | 0.0331
GCCGATCA | 0.257
ACCGGGCT | 0.38
AGATACAC | -0.0174
AGATTGCT | -0.13
CATCACAC | -0.106
CACCATCC | -0.00376
GAACAATC | -0.0939
AAATCAGC | -0.0153
GTTGAATA | -0.0531
AGTGATGC | -0.129
CATGCAGG | -0.294
CTTCGCCC | -0.0134
GGCGCTGA | 0.136
ATCATGGC | -0.00977
ACATGTCG | 0.142
GTTTTCAA | -0.0238
GGAGCATA | 0.139
ACTATGGG | -0.177
ACTTGGTC | 0.00341

Sequence | PBM E-score
CCGCCACG | 0.284
CACCGTTC | 0.368
AGTCGTCC | -0.113
AAGCATAC | -0.201
ACTGCCAC | -0.127
ATATCAAG | -0.0382
ATAAAGCA | -0.281
AGATGTAA | -0.0933
CCCCTGAG | -0.252
CATACAGG | -0.218
ACTGAGGG | -0.272
CTATCATC | 0.0322
CGGTCCAA | 0.186
AGGAACTA | 0.0488
ATGCCAGG | -0.176
ATAGGAAG | -0.141
CGTGATCA | 0.00777
AATCGTTA | -0.232
TCCACGGA | 0.243
ATATGCCC | 0.266
GAATTGCA | -0.0977
CCAGCTCC | -0.0313
ATACCTAC | -0.0145
ACTCGAAC | 0.00108
GATGACCC | -0.304

Sequence | PBM E-score
AGACTGCG | -0.124
CTATGGAG | -0.195
TATTCTGA | -0.0984
AAGTTTAC | 0.0415
ATAGTTTA | -0.0841
CTAGACGA | -0.244
GCTTGAGA | -0.147
AGTACGGC | 0.136
AGACTGGG | -0.255
ACACCGGG | 0.417
AAAGACTT | -0.201
ACTGAGCT | -0.0384
CTGAGATA | 0.00305
GTCAATGA | -0.142
AAAATGCG | 0.126
CAAGGCGC | 0.0884
GGGAAAGA | -0.287
GGGTGCAA | 0.0314
TAAAGATA | -0.0745
CTTCACTA | -0.138
TAGTGCCA | 0.0726
ACGCTAGA | -0.0848
ACCGAGGA | 0.195
AGTATGTA | -0.129
TAGTAAAA | -0.0474

Sequence | PBM E-score
ATCAAGTA | -0.133
ACAATCTG | -0.0232
CCATACGA | -0.102
TATCCTAA | -0.109
AAGCAGTC | -0.226
ACACCGGC | 0.4
CGACTGTA | 0.104
ATATGCTA | -0.0569
GCAAATAA | 0.0787
CGTCTCTA | -0.145
AACCTTCG | -0.0851
AACCGTCA | 0.0839
CTGGCGAC | -0.194
TTGTCAAA | -0.0497
GTACTCAC | -0.197
AAGTAAAG | -0.0899
TAGGTAGA | -0.147
CCTTCAAA | -0.00408
ATTCCCAG | -0.0479
ACTAGCAC | 0.0392
CCGGTGAC | 0.292
CTCCGATA | 0.318
